Assay results as given in PubChem BioAssay AID504845 (National Center for Advancing Translational Sciences (NCATS), 2011).
Among all 390,000 compounds or so, about 150 (0.038%) were called active. This list was built around the results that the source calls inconclusive (neither active nor inactive); the mix of calls is not that of the screen. Calls come from the whole dose curve; as a rule, active = well fitted inhibition curve with a large enough effect; inconclusive = small, poorly fitted or top-dose-only effect; inactive = no such curve, though single readings can be large or run the other way. Where the call is inconclusive, the potency comes from a doubtful curve fit.
Note: nearly all actives have a fitted effect of over 75% in size.
Potency is the fitted concentration of half-maximal effect; tags give direction and shape of the fitted curve.

Each compound was assayed against Regulator of G-protein signaling 4 (Homo sapiens) (UniProt P49798) (assay: Inhibitors of Regulator of G Protein Signaling (RGS) 4: qHTS). Conditions: Transcreener GDP fluorescence polarization, RGS4-accelerated GTP hydrolysis; series mostly up to 114 µM.
Sequence of UniProt P49798 (P49798 whole entry, looked up): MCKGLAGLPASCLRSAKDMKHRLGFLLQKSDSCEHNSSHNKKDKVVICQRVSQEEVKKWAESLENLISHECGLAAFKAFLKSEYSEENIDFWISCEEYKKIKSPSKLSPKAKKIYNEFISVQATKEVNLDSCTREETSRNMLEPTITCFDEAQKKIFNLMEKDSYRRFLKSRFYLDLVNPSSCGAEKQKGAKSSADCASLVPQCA
How it was run: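 MLSMR compounds (23 nl, pin-transferred) preincubated 10 min at room temperature with a 500nM (2x) first reagent, then RGS4 at 900nM (2x) plus Transcreener GDP mix added; fluorescence polarization (620/688 nm) read before and after 90 min at 30 °C.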
In the case of `CC(C)(C)c1ccc(C(=O)NCCc2csc(-c3ccc(Cl)cc3)n2)cc1`, the Potency is reported as “inactive”. With `Oc1c(Br)cc(/C=N/n2c(-c3ccccc3)n[nH]c2=S)c(O)c1Br` the Potency was inconclusive: 79.4 µM [inhibitor, partial curve, poor fit]. For `O=C(COc1ccc(F)cc1)Nc1nc(-c2ccccn2)cs1`, the Potency was “inactive”. With `COc1ccc(CCn2c(S)nc3ccccc3c2=O)cc1` the Potency was “inactive”. For `N#C/C(=C\c1ccc(OCc2ccc(Cl)cc2)cc1)C(=O)Nc1cccc(C(=O)O)c1`, the Potency was inconclusive: 50.1 µM [inhibitor, partial curve, poor fit]. In the case of `S=c1nc[nH]c2c1ncn2C1CCCO1` (configuration not stated), the Potency is reported as inconclusive: 89.1 µM [inhibitor, partial curve, poor fit]. For `CCOc1ccc2cc(S(=O)(=O)N3CCOCC3)ccc2c1`, the Potency was inconclusive: 50.1 µM [inhibitor, single point]. In the case of `CCN=c1scc(C)n1/N=C/c1ccc(O)c(O)c1O`, the Potency is reported as inconclusive: 17.8 µM [inhibitor, full curve, poor fit]. `O=C(O)c1sc2cccc(Cl)c2c1Cl` was tested, and the Potency was inconclusive: 39.8 µM [inhibitor, partial curve, poor fit]. `N#Cc1c(-c2ccccc2)nc(SCC(=O)Nc2ccccc2)[nH]c1=O` was tested, and the Potency was “inactive”. `COc1cnc(-c2ccccn2)nc1Sc1cccc(Cl)c1` was tested, and the Potency was “inactive”. With `COc1ccccc1CNS(=O)(=O)N(C)C` the Potency was inconclusive: 56.2 µM [inhibitor, partial curve, poor fit]. For `CC(C)(C)c1cc(C(=O)O)n(Cc2ccc(Cl)cc2Cl)n1`, the Potency was inconclusive: 89.1 µM [inhibitor, single point]. For `COc1ccc(NC(=O)CNC(=O)N2CC(=O)Nc3ccccc32)cc1OC`, the Potency was inconclusive: 89.1 µM [inhibitor, single point]. In the case of `COc1ccc(CCNC(=O)CCCN2C(=O)c3ccccc3C2=O)cc1`, the Potency is reported as inconclusive: 50.1 µM [inhibitor, partial curve, poor fit]. In the case of `COc1ccccc1-c1nnc(NC(=O)C(C)C)s1`, the Potency is reported as “inactive”. In the case of `COc1ccc(/C=C/C(=O)Nc2cccc(S(=O)(=O)N3CCOCC3)c2)cc1OC`, the Potency is reported as “inactive”. In the case of `COc1ccc(C(=O)Nc2ccc3nc(SCC(=O)N4CCc5ccccc54)sc3c2)cc1`, the Potency is reported as inconclusive: 79.4 µM [inhibitor, single point]. With `Cc1oc(-c2ccc(C(=O)NCc3ccccc3)cc2)nc1CN1CCc2ccccc21` the Potency was “inactive”. `COc1cccc(-c2sc3ccc(OC)cc3c2C#CCCO)c1` was tested, and the Potency was “inactive”. With `COc1cc(C(CCN2CCCC(C)C2)c2c(OC)cc(OC)c3c2OC(=O)CC3c2ccc(N(C)C)cc2)cc(OC)c1OC` (configuration not stated) the Potency was “inactive”. In the case of `O=C1C=C(Nc2ccccc2)c2ccccc2C1=O`, the Potency is reported as “inactive”. `Cc1ccc(S(=O)(=O)c2nc(C)oc2N2CCOCC2)cc1` was tested, and the Potency was inconclusive: 39.8 µM [inhibitor, partial curve, poor fit]. With `NC(=S)NN=C(Cc1ccccc1)Cc1ccccc1` the Potency was inconclusive: 50.1 µM [inhibitor, partial curve, poor fit]. For `CCC1CCCCN1S(=O)(=O)c1ccc(NC(=O)c2nc(S(C)(=O)=O)ncc2Cl)cc1` (configuration not stated), the Potency was inconclusive: 17.8 µM [inhibitor, full curve, poor fit]. In the case of `CCCS(=O)(=O)Nc1ccc(N2CCCCC2)c(S(=O)(=O)Nc2ccccc2OC)c1`, the Potency is reported as inconclusive: 100 µM [inhibitor, partial curve, poor fit]. `CC1(COS(N)(=O)=O)CCCCC1` was tested, and the Potency was “inactive”. For `Nc1c(C(=O)O)sc2nc(-c3ccc(F)cc3)cc(-c3ccccc3)c12`, the Potency was inconclusive: 31.6 µM [inhibitor, full curve, poor fit]. For `Nc1ccc(-c2ccc3ccccc3n2)cc1`, the Potency was inconclusive: 15 µM [inhibitor, single point]. `CS(=O)(=O)c1ccc(S(=O)CC(=O)Oc2ccc(Cl)cc2)c([N+](=O)[O-])c1` (configuration not stated) was tested, and the Potency was inconclusive: 89.1 µM [inhibitor, partial curve, poor fit]. `Cc1cc(S(=O)(=O)NCc2ccc(N3CCN(C)CC3)cc2)c(C)s1` was tested, and the Potency was “inactive”. In the case of `COc1cccc(C(=S)N2CCOCC2)c1OS(=O)(=O)c1ccc(Cl)cc1`, the Potency is reported as inconclusive: 100 µM [inhibitor, single point]. In the case of `CC(=O)NC(=S)Nc1sc2c(c1C(N)=O)CCC(C)C2` (configuration not stated), the Potency is reported as “inactive”. For `COc1ccc(-c2coc3cc(O[C@@H]4O[C@H](CO)[C@@H](O)[C@H](O)[C@H]4O)ccc3c2=O)cc1`, the Potency was “inactive”. `CCN1C(=O)N[C@@H](CCc2ccccc2)C(C(C)=O)=C1C` was tested, and the Potency was inconclusive: 50.1 µM [inhibitor, partial curve, poor fit]. For `COc1ccc(-c2cn(Cc3ccc(C)cc3)nn2)cc1`, the Potency was “inactive”. With `COc1ccccc1-c1nnc(NC(=O)c2ccc(S(=O)(=O)N(C)C)cc2)o1` the Potency was “inactive”. With `CCOc1ccc(C2=CS/C(=C(\C#N)c3nnc4n3CCCCC4)N2CC)cc1` the Potency was “inactive”. For `Cc1ccc(N2C(=O)c3n[nH]c(C)c3C2c2ccc(Cl)cc2)cc1` (configuration not stated), the Potency was “inactive”. In the case of `Cc1cccc(N=Cc2cc(Br)cc(Cl)c2O)c1`, the Potency is reported as inconclusive: 79.4 µM [inhibitor, partial curve, poor fit]. `Cn1c(=O)c2c([nH]c(=S)n2CCCc2ccccc2)n(C)c1=O` was tested, and the Potency was inconclusive: 31.6 µM [inhibitor, full curve, poor fit]. For `CC(NC(=O)CSC(=S)N(C)C)C12CC3CC(CC(C3)C1)C2` (configuration not stated), the Potency was inconclusive: 79.4 µM [inhibitor, single point]. For `CCn1c(=O)c(=O)[nH]c2cc(C(=O)N3CCN(Cc4ccc5c(c4)OCO5)CC3)ccc21`, the Potency was “inactive”. For `O=C(NCc1ccccc1)C(c1ccccc1)N(Cc1ccc2c(c1)OCO2)C(=O)Cc1cccs1` (configuration not stated), the Potency was “inactive”. In the case of `Cc1ccc(-c2cc(C(=O)Nc3ccc(S(=O)(=O)N4CC(C)OC(C)C4)cc3)[nH]n2)c(O)c1` (configuration not stated), the Potency is reported as “inactive”. For `Cc1cc(C)cc(N2C(=O)CN(Cc3ccccc3)C2=S)c1`, the Potency was inconclusive: 50.1 µM [inhibitor, partial curve, poor fit]. With `Cc1ccc2sc(NNC(=O)c3cc(=O)c4ccccc4o3)nc2c1C` the Potency was inconclusive: 56.2 µM [inhibitor, partial curve, poor fit]. With `COc1ccc2nc(-c3ccco3)c(-c3ccco3)nc2c1` the Potency was inconclusive: 17.8 µM [inhibitor, full curve, poor fit]. In the case of `COC(=O)c1c(C)[nH]c(C(=O)COc2ccc3ccc(=O)oc3c2)c1C`, the Potency is reported as inconclusive: 17.8 µM [inhibitor, full curve, poor fit]. In the case of `CN(C)c1nc(NS(=O)(=O)c2ccc(Cl)cc2)nc(N(C)C)n1`, the Potency is reported as “inactive”. `COc1ccc(NS(=O)(=O)c2cc(C)ccc2NC(=O)c2cc(C)oc2C)cc1` was tested, and the Potency was inconclusive: 89.1 µM [inhibitor, single point]. `CCOC(=O)c1c(-c2ccc(Cl)cc2)cn2ccccc12` was tested, and the Potency was “inactive”. With `Cc1ccccc1OCC(=O)Nc1ccc(N2CCN(C)CC2)c(Cl)c1` the Potency was “inactive”. In the case of `COC(=O)c1ccccc1NC(=O)COC(=O)CSCC(=O)N1CCOCC1`, the Potency is reported as inconclusive: 100 µM [inhibitor, single point]. In the case of `COc1ccc(N/N=C(\C#N)C(=N)N2CCCCC2)cc1`, the Potency is reported as “inactive”. `CCn1c(SCC(=O)c2ccccc2)nnc1-c1cc2cc(Br)ccc2o1` was tested, and the Potency was “inactive”. `O=C(Nc1ccccc1)c1ccc(C(=O)Nc2ccccc2)nc1` was tested, and the Potency was inconclusive: 20 µM [inhibitor, full curve, poor fit]. `O=C(/C=C/c1cccnc1)/C=C/c1cccnc1` was tested, and the Potency was inconclusive: 10 µM [inhibitor, full curve, poor fit]. With `c1coc(Cn2c(SCc3nc4ccccc4[nH]3)nnc2-c2cnccn2)c1` the Potency was “inactive”. `COC(=O)c1ccccc1OCCOCCOc1cccc2cccnc12` was tested, and the Potency was inconclusive: 79.4 µM [inhibitor, partial curve, poor fit]. For `O=C(NNC(=S)NC(=O)c1cccs1)c1cccnc1`, the Potency was inconclusive: 100 µM [inhibitor, partial curve, poor fit]. With `O=C(CSC1CS(=O)(=O)c2cc([N+](=O)[O-])ccc21)NNC(=O)c1ccc(Cl)cc1` (configuration not stated) the Potency was inconclusive: 70.8 µM [inhibitor, single point]. In the case of `Cc1cc(C(F)(F)F)cc(NNC(=O)NC(=O)c2ccc(Cl)cc2)n1`, the Potency is reported as inconclusive: 100 µM [inhibitor, partial curve, poor fit]. With `Cn1c(SCC(=O)c2ccc(F)cc2)nnc1-c1cnccn1` the Potency was inconclusive: 100 µM [inhibitor, single point]. `CCc1ccc(NC(=O)CN(c2ccc(Cl)cc2)S(=O)(=O)c2ccsc2C(=O)OC)cc1` was tested, and the Potency was “inactive”. In the case of `O=C(C1CC(c2ccccc2O)=NO1)N1CCc2ccccc2C1` (configuration not stated), the Potency is reported as “inactive”. In the case of `COc1ccc(Cn2c(O)c(C=Nc3ccccc3C(=O)O)c3ccccc3c2=O)cc1`, the Potency is reported as inconclusive: 79.4 µM [inhibitor, partial curve, poor fit]. For `O=C(COc1ccc(Cl)cc1)Nc1cnn(Cc2c(Cl)cccc2Cl)c1`, the Potency was inconclusive: 79.4 µM [inhibitor, single point]. For `CNC(=O)c1[nH]cnc1C(=O)N[C@@H](C)C(=O)OCc1ccccc1`, the Potency was “inactive”. In the case of `Nc1cccc2c1C(=O)N(C(=O)/C=C/c1cccc(Br)c1)C2=O`, the Potency is reported as inconclusive: 8.91 µM [inhibitor, full curve, poor fit]. In the case of `Cc1ccc2ncnc(Nc3cccc(C(=O)O)c3)c2c1`, the Potency is reported as inconclusive: 79.4 µM [inhibitor, partial curve, poor fit]. In the case of `CN(C)c1ccc(/C=C/C(=O)c2c(O)c3ccccc3oc2=O)cc1`, the Potency is reported as inconclusive: 35.5 µM [inhibitor, full curve, poor fit].
